Results reported in PubChem BioAssay AID1963576 (National Center for Advancing Translational Sciences (NCATS), 2024).
Out of some 46,000 compounds screened, about 60 (0.1%) were called active. Roughly 3% stayed inconclusive and do not appear here. The call rests on the fitted dose curve; in most records, active means well fitted inhibition curve with a large enough effect; inconclusive means small, poorly fitted or top-dose-only effect; inactive means no such curve, though single readings can be large or run the other way. The list shows a part of the results. Non-standard residues stand in square brackets, D forms with d. Residues, ends and D or L forms follow the SMILES beside them. *: point of attachment. Sta = CC(C)C[C@H](N)[C@@H](O)CC(=O)O; Isovaleryl = CC(C)CC(=O)*

Assay: Primary qHTS assay for Inhibitors of ovarian cancer metastasis using an organotypic tumor microenvironment (TME) model. Further: nearly all actives have a fitted effect of over 65% in size.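 On activity change, negative = inhibition: plate controls were DMSO wells for no effect and tomatine positive control wells for full effect.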
Details: SKOV3ip1-GFP adhesion/invasion on 3D omental model, fluorescence; series mostly up to 45.8 µM; activity change, negative = inhibition: at the top concentration
Outline: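 Adhesion/invasion was scored as fixed GFP-labeled SKOV3ip1 cell counts (488/509 nm), normalized to DMSO and tomatine controls. Cancer cells in serum-free medium, with four compound doses (0.36-46 umol/L), sat 2 hr at RT then 16 hr at 37 C on a 48 hr fibroblast/mesothelial/ECM culture.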

outcome, inactive:
COc1ccc(N2CC(NC(=O)c3c(F)cccc3Cl)CC2=O)cc1OC (stereo not given)
O=C(c1ccc2c(Cl)c3c(nc2c1)CCCC3)N1CCN(c2ccccc2F)CC1
O=C(NCc1ccccc1)c1ccc2c(c1)nc1n2CCCCC1
O=C(Cn1c(=O)c2cccn2c2ccc(F)cc21)N1CCN(c2ccccc2)CC1
CCc1ccc(NC(=O)Cn2c(=O)n(CC3CCCO3)c(=O)c3cc(OC)c(OC)cc32)cc1 (stereo not given)
CC(C)NC(=O)Cn1nc(N2CCN(c3ccccc3)CC2)ccc1=O
CC(=O)N1CCc2c(sc3c2c(=O)n(CCc2ccccc2)c(=O)n3Cc2cccc(C)c2)C1
COCCN1Cc2cccc(C(=O)Nc3ccc(Cl)cc3Cl)c2C1=O
O=C1CC(c2nc(-c3ccccc3)no2)CN1c1ccc2c(c1)OCCO2 (stereo not given)
COC(=O)C1CCN(C(c2ccccc2)c2sc3nc(-c4ccco4)nn3c2O)CC1 (stereo not given)
Cc1cc(Cl)ccc1NS(=O)(=O)c1ccc2c(c1)CC(C)N2C(=O)C1CCC1 (stereo not given)
Cc1c(Cl)cccc1NC(=O)CSc1nc(=O)n(Cc2cccnc2)c2c1CCC2
CCOc1cccc(NC(=O)c2ccc(F)c(S(=O)(=O)N(CC)c3cccc(C)c3)c2)c1
CCOC(=O)c1ccc(CN(Cc2ccc(C)cc2)S(=O)(=O)c2ccc(NC(C)=O)cc2)cc1
CSc1cccc(NC(=O)C2CCN(S(=O)(=O)c3ccc4[nH]c5c(c4c3)CCCCC5)CC2)c1
CC(=O)Nc1ccc(Nc2nnc(-c3ccc(C)c(S(N)(=O)=O)c3)c3ccccc23)cc1
O=C(NCc1ccc2c(c1)CCN2C(=O)c1ccccc1)c1ccco1
Cc1ccc(NC(=O)C(=O)NCCc2csc3nc(-c4ccccc4C)nn23)cc1Cl
COCCn1c(SCC(=O)Nc2ccc(C(F)(F)F)cc2)nc2c([nH]c3ccccc32)c1=O
CCC1=C(c2ccc(C)cc2)S(=O)(=O)N=C1N1CCC(C(=O)NCc2ccccc2Cl)CC1
CCOc1cc(C(=O)Nc2ccc(S(=O)(=O)Nc3cc(OC)nc(OC)n3)cc2)cc(OCC)c1OCC
CN(Cc1ccco1)S(=O)(=O)c1nnc(NC(=O)c2cccc(Cl)c2)s1
CCCN(CCC)C(=O)c1cc2c(=O)n3cccc(C)c3nc2n1C
Cc1ccc(-c2nnc(Nc3ccc(S(N)(=O)=O)cc3)c3ccccc23)cc1S(=O)(=O)N1CCCCC1
CN(C)c1ccc(C(CNC(=O)c2c(F)cccc2Cl)N2CCOCC2)cc1 (stereo not given)
Cc1ccc(NC(=O)CN2C(=O)C3(SCC(=O)N3c3ccc(F)c(F)c3)c3ccccc32)c(C)c1 (stereo not given)

Activity change, negative = inhibition, inactive:
COc1cccc(C2=CC(c3ccccc3F)n3c(nc4ccccc43)N2)c1 (stereo not given) 1.73%
O=C(Nc1nnc(SCc2cc(=O)n3cc(Cl)ccc3n2)s1)c1cccc(F)c1 -14.1%
Cc1cc(C)cc(NC(=O)Cn2c3ncccc3c(=O)n2-c2ccc(C)c(C)c2)c1 -11.5%
O=C(Cn1cnc2nc3c(cc2c1=O)CCCC3)N1CCN(c2ccccc2)CC1 3.32%
Cc1ccc(CSc2ncc(Cl)c(C(=O)Nc3sc4c(c3C(N)=O)CCCC4)n2)cc1 4.7%
CCc1nn2c(=O)cc(COc3ccc(/C=C(\C#N)C(=O)Nc4ccc(C)cc4)cc3)nc2s1 39.7%
Cc1cccc(N2CCN(Cc3nnc(-c4ccc5c(c4)OCO5)o3)CC2)c1C -21.4%
Cc1cccc(C#Cc2ccccc2)n1 -6.75%
O=C(CN1C(=O)C2CCCCN2c2ccc(C(=O)N3CCCC3)cc21)NCc1cccc(F)c1 (stereo not given) 0.943%
Cc1ccccc1CNC(=O)C(=O)NCC(c1cccs1)S(=O)(=O)c1ccc(Cl)cc1 (stereo not given) 8.46%
COc1ccc(NC(=O)Nc2ccccc2OCc2cc(=O)n3ccccc3n2)c(OC)c1 8.69%
Cc1ccc(-c2cc(C(F)(F)F)c(C#N)c(SCC(=O)O)n2)cc1 -6.67%
COc1ccc2oc(-c3ccc(C)c(NC(=O)CSc4ccc(Cl)cc4)c3)nc2c1 -1.41%
CCOc1cc(C2C(C(=O)OC)=C(C)NC3=C2C(=O)c2ccccc23)c(Br)cc1O (stereo not given) 11.6%
O=c1c(=O)n(Cc2c(F)cccc2Cl)ccn1Cc1ccccc1 2.39%
CCN(CC)c1ccc(NC(=O)CN2C(=O)c3cccnc3Sc3ccccc32)c(C)c1 -0.887%
CN(C1CCc2c(c3ccccc3n2CC(=O)O)C1)S(=O)(=O)c1ccc(F)cc1 (stereo not given) -33.7%
COc1cccc(NC(=O)Cn2c(=O)n(CC(=O)NCCc3ccccc3)c(=O)c3sccc32)c1 5.12%
COc1ccc(N2CCN(C3C(=O)c4ccccc4N3C(C)=O)CC2)cc1 (stereo not given) -10.9%
Cc1ccc(-c2c3c(=O)n(C)c(=O)n(C)c3cn2-c2cc(C)ccc2O)cc1 5.75%
Cc1c(Cl)cccc1-n1ncc(C(=O)Nc2ccc(F)cc2F)c1C1CCN(C(=O)OC(C)(C)C)CC1 10.2%
Cc1ccc(CNC(=O)C2CCN(C(=O)c3cnn(-c4ccccc4)c3-n3cccc3)CC2)cc1 -3.65%
Cc1ccc(Cn2cc(S(=O)(=O)c3ccc(C)cc3)c(=O)c3cc(F)c(N4CCCC4)cc32)cc1 2.58%
Cc1ccc(NC(=O)C2CCCN(S(=O)(=O)c3c(C)n[nH]c3C)C2)cc1C (stereo not given) 4.61%
O=C(Nc1nnc(S(=O)(=O)N2CCCCCC2)s1)c1ccccc1Br -1.62%
COc1ccc(C)cc1NC(=O)Cn1c(=O)oc2cc(S(=O)(=O)NCc3ccccc3)ccc21 5.55%
O=C(C1CCN(S(=O)(=O)Cc2ccccc2)CC1)N1CCN(c2cccc(Cl)c2)CC1 -9.05%
CC(C)CCNC(=O)Nc1cc(C(=O)NCc2cccc(F)c2)ccc1N1CCCC1 7.06%
COc1ccc2c(c1)c1c(c(=O)n(Cc3ccccc3)c(=O)n1CC(=O)Nc1ccc(C)cc1C)n2C 17.5%
COc1ccc2c(c1)CC(C(=O)NCCN1CCN(c3cccc(C)c3C)CC1)CO2 (stereo not given) 1.97%
CCCS(=O)(=O)N1CC(=O)N(c2ccc(Cl)cc2)C(C)(C(=O)NC2CCCC2)C1 (stereo not given) -0.356%
CCn1cc2nc(SCc3ccc(F)cc3)n(Cc3ccc(Cl)cc3)c(=O)c2n1 1.64%
COCCCNC(=O)CN1C(=O)CSc2ccc(S(=O)(=O)N3CCOCC3)cc21 -1.82%
O=C(NCc1ccccc1Cl)c1ccc(NC(=O)N2CCSc3ncccc32)cc1 4.26%
COc1cccc(N2CCN(C(=O)c3cc4c(=O)n(Cc5ccco5)ccc4nc3C)CC2)c1 9.21%
O=C(Nc1ccc(S(=O)(=O)N(Cc2ccccc2)c2ccccc2)cc1)c1ccc([N+](=O)[O-])cc1 3.64%
Cc1ccc(NC(=O)c2oc3ccc(S(=O)(=O)N4CCC5(CC4)OCCO5)cc3c2C)c(C)c1 2.99%
CCCCCOC(=O)c1ccc(OC(=O)c2sc3ncn(Cc4cccc(F)c4)c(=O)c3c2C)cc1 5.92%
CCCN(CCC)CCNC(=O)C1CCCN(S(=O)(=O)c2cccc3nsnc23)C1 (stereo not given) 12.6%
CCOC(=O)c1cc(S(=O)(=O)N2CCN(c3ccc(F)cc3)CC2)[nH]n1 15.3%
CC(=O)N1CCCc2cc(S(=O)(=O)N3CCCC(C(=O)Nc4cccc(Cl)c4C)C3)ccc21 (stereo not given) -13.7%
CCOC(=O)c1cnc2ccc(OCC)cc2c1Nc1cc(Cl)c(OC)cc1OC 2.6%
CC(C)Cn1cc(C(=O)N2CCN(c3cccc(Cl)c3)CC2)c2c3ccccc3n(C)c2c1=O -16.9%
COc1ccc(OC)c(NC(=O)N2CCC(CN3CCCCC3)CC2)c1 0.735%
COc1ccc(OC)c(CNc2sc3c(c2C(=O)Nc2cc(OC)ccc2OC)CCCC3)c1 -2.29%
Cc1nc(SCc2ccc(Cl)cc2)c(C#N)c(C)c1Cl -13.7%
CCOc1cc2[nH]c(=O)n(CCCC(=O)N3CCN(c4cccc(Cl)c4)CC3)c(=O)c2cc1OCC -7.63%
CC(C)CC(=O)N[C@H](C(=O)N[C@H](C(=O)N[C@@H](CC(C)C)[C@@H](O)CC(=O)N[C@@H](C)C(=O)N[C@@H](CC(C)C)[C@@H](O)CC(=O)O)C(C)C)C(C)C (Isovaleryl-VV[Sta]A[Sta]-OH) -13.3%
COC(=O)c1ccc(Cn2c(SCC(=O)N(C)c3ccccc3)nc3ccccc32)cc1 6.65%
CCCCc1ccc(NC(=O)c2ccc3c(c2)CCN3S(=O)(=O)c2ccccc2)cc1 10.2%
Cc1ccc(C)c(OC(=O)CSc2nnc(-c3ccc4c(c3)OCO4)o2)c1 4.87%
Cc1ccc2cccc(NC(=O)c3ccc(-c4cccc(Cl)c4)o3)c2n1 3.66%
CC(C)C(NS(=O)(=O)c1ccc2c(c1)oc(=O)n2C)C(=O)NCCc1ccc(Cl)cc1 (stereo not given) 2.51%
Cc1ccc(NC(=O)Cn2c(=O)oc3cc(S(=O)(=O)N4CCCCCC4)ccc32)cc1Cl -5.2%
Cc1ccc(NC(=O)c2nc(S(C)(=O)=O)ncc2N(Cc2ccco2)Cc2ccco2)cc1C -6.26%
NS(=O)(=O)c1ccc2nc(NC(=O)COc3ccccc3)sc2c1 -4.84%
COc1ccc(CCC(=O)NCCc2csc(-c3ccc(Cl)cc3)n2)cc1 1.64%
COCCNC(=O)CSc1nc(-c2ccccc2C)nc2c1c(=O)n(C)c(=O)n2C 0.615%
Cc1ccc(NC(=O)c2c(C)oc3ccc(O)c(CN4CCCCC4)c23)c(C)c1 0.437%
O=C(O)C[C@H](O)C[C@H](O)C=Cc1c(C2CC2)nc2ccccc2c1-c1ccc(F)cc1 -18.7%
CC(C)(Oc1ccc(Cl)cc1)C(=O)Nc1nc2ccc(S(C)(=O)=O)cc2s1 -0.732%
CCC(=O)N1CCc2cc(Br)cc(S(=O)(=O)CCC(=O)N(CC)Cc3ccccc3)c21 9.03%
Nc1ccn([C@@H]2O[C@H](CO)[C@H](O)C2(F)F)c(=O)n1 -24.7%
CCOCCCNC(=O)C(c1ccc(Cl)cc1)N(Cc1cccs1)C(=O)c1ccc(NC(C)=O)cc1 (stereo not given) 11.8%
